Experimental data: article PMC4336329 (PLoS ONE, 2015)
Screen size: about 310,000 compounds; about 2,200 (0.71%) showed an effect of 50% or more. The effect is printed as a negative number. The list shows a part of the results. Where a SMILES comes first, the peptide text is derived from it. The star is where a group is joined. Boc = CC(C)(C)OC(=O)*

target: human ether-à-go-go-related gene (hERG) potassium channel (human, UniProt Q12809); experiment: primary screen, population patch clamp on CHO cells stably expressing hERG
Sequence (Q12809 whole entry, looked up): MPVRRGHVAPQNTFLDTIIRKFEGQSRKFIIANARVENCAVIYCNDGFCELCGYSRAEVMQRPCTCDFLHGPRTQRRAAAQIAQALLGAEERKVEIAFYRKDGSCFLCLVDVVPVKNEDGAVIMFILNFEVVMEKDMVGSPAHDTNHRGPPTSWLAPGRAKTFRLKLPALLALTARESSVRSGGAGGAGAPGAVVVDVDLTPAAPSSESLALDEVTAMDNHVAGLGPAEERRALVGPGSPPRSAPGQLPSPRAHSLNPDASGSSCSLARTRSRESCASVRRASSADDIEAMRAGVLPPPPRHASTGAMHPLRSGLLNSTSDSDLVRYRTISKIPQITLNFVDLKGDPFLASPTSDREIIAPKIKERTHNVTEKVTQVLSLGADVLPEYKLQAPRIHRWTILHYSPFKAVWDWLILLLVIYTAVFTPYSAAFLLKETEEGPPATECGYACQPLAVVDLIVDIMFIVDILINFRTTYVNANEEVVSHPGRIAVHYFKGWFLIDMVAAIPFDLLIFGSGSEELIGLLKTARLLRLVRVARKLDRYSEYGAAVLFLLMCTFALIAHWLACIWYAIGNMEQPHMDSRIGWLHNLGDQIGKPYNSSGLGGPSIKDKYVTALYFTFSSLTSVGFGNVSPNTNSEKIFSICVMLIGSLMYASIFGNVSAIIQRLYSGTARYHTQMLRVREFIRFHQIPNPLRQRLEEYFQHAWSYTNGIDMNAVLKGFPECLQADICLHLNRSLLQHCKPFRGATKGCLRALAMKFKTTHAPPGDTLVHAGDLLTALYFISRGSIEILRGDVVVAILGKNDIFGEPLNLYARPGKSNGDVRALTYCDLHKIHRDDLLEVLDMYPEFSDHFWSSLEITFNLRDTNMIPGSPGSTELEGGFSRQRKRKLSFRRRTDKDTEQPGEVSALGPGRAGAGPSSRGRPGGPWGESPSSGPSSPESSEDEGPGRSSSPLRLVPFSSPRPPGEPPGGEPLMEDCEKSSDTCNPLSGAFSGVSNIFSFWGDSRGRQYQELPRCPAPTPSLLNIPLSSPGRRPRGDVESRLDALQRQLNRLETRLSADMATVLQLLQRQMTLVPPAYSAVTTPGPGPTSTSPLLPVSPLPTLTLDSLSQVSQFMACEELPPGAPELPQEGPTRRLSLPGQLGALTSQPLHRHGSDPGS

Structure (SMILES) | hERG current change (%, negative = inhibition) at 1uM [%]
O=C(O)c1ccc(S(=O)(=O)N2CCCC2)cc1 | 14.4
Cc1cc(C)c(S(=O)(=O)N2CCCCC2CCNC(=O)C(=O)NCc2ccco2)c(C)c1 (centres unmarked) | 14.5
COc1cccc(NC(=O)CSc2nc3n[nH]c(C)c3c(=N)n2-c2cccc(OC)c2)c1 | 2.18
CC(C)c1ccc(-c2c(C#N)c(N)nc(SCC(=O)N3CCCCC3)c2C#N)cc1 | 13.8
Cc1ccc(Cn2c(SCC(C)C)nc3c2c(=O)[nH]c(=O)n3C)cc1 | 9.48
O=S(=O)(c1ccc(OCC2CO2)cc1)c1ccc(OCC2CO2)cc1 (centres unmarked) | 20
COc1cccc(C2=CC(c3cccc(OC)c3OC)n3nnnc3N2)c1 (centres unmarked) | 10.7
CCCCN(C(=O)c1cc2ccccc2o1)c1c(N)n(CCC)c(=O)[nH]c1=O | 6.81
Cc1cc(N2CCN(C(=O)c3ccco3)CC2)nc(-c2ccccc2)n1 | -22.6
CCCNC(=O)c1noc2c1CCc1cc(OC)ccc1-2 | 13.1
CCc1ccc(NC(=O)Nc2cc(C(=O)NCC3CCCO3)ccc2N2CC3CC(C2)c2cccc(=O)n2C3)cc1 (centres unmarked) | 11.3
COc1ccc(C(=O)N2CCN(c3ccccn3)CC2)cc1 | 6.53
CC(CCc1ccccc1)NC(=O)c1nnc(Cc2ccc(F)cc2)o1 (centres unmarked) | 4.74
Nc1nnc(SCc2ccc(F)cc2)s1 | -2.01
O=C(CN1CCN(CCO)CC1)Nc1ccc(Cl)cc1C(=O)c1ccccc1 | -80.7
Cc1[nH]c2ccccc2c1C(=O)CN1C(=O)NC(C)(c2ccc(Cl)cc2Cl)C1=O (centres unmarked) | 13.3
COc1ccccc1Oc1ccc(N/C=C2/CCCC2=O)cc1 | 6.15
CN(C)S(=O)(=O)c1ccc2c(c1)C(=NO)c1cc(S(=O)(=O)N(C)C)ccc1-2 | 14.1
CCN1C(=O)CC(C(=O)Nc2ccc(F)cc2)SC1=Nc1ccc2c(c1)OCO2 (centres unmarked) | 2.65
Cc1ccc(-c2nc(CS(=O)CC(=O)NCCCN3CC(C)CC(C)C3)c(C)o2)cc1 (centres unmarked) | 3.4
O=C(Nc1ncccc1O)c1ccc(Oc2ccccc2)cc1 | 14.8
COc1cccc(CNC(=O)c2ccc3nc[nH]c3c2)c1 | 15.7

Structure (SMILES) | hERG current change (%, negative = inhibition) at 1uM [%]
CC(C)(C)N(Cc1ccccc1)C(=O)COC(=O)c1ccc([N+](=O)[O-])o1 | 16.1
CCOC(=O)CN1C(=O)C2(C(C#N)=C(N)Oc3ccccc32)C(C(=O)OC)=C1C (centres unmarked) | 11.9
CSc1ncccc1C(=O)NCC12CC3CC(CC(C3)C1)C2 | 12.3
COCc1cccc(NC(=O)CCc2ccccc2)c1 | 12.9
Cc1cc(Cl)ccc1OCC(=O)NNC(=O)CCOc1ccccc1 | -0.757
CCOc1nc(NCCc2ccc(OC)c(OC)c2)nc(NC(C)(C)CO)n1 | 10.8
CSc1nc(C)c2c(n1)N(c1ccc(C(C)C)cc1)CC2 | 7.39
O=[N+]([O-])c1ccc(Sc2cc[n+]([O-])c3ccccc23)c([N+](=O)[O-])c1 | -0.0631
Cc1ccc(C)c(NC(=S)/C(=C(\[O-])c2ccc(OC(F)F)cc2)[n+]2ccccc2)c1 | 21.8
COc1ccc(N2C(=O)N3[C@H](c4ccc(Cl)cc4)[C@@H]4C(=O)N(C5CCCCC5)C(=O)[C@@H]4[C@]3(C)C2=O)cc1 | 12.7
Cc1ccc(C(=O)N2CCN(C3CCCCC3)CC2)s1 | -9.84
C=CCOc1ccccc1C(=O)/C=C1/C(=O)Nc2ccccc21 | 13.9
Cc1cccc(Nc2nnc(SC/C(O)=C(\C#N)c3nc4ccccc4[nH]3)s2)c1C | 3.81
Cc1cccc(N2CCC(N3CCN(C4CCCCC4)C(CCO)C3)CC2)c1C (centres unmarked) | -4.91
CCN(CC)S(=O)(=O)c1ccc(NC(=O)COc2nc3ccccc3nc2N2CCOCC2)cc1 | -3.92
COc1ccccc1OCC(=O)NCc1nc(-c2ccccc2)no1 | 5.59
CC1CCCCC1NC(=O)C(=O)NCC1CCCO1 (centres unmarked) | 4.9
O=C(Nc1ccccc1C(=O)N1CCCCC1)c1cccc(S(=O)(=O)N2CCOCC2)c1 | 8.21
Cc1ccc(C)c(C(=O)COC(=O)c2cc(Cl)nc3ccccc23)c1 | 16.6
CCOc1ccc(S(=O)(=O)N/N=C2/CC(c3ccccc3)Oc3ccccc32)cc1 (centres unmarked) | 4.51
COc1ccc(NC(=O)c2cc(-c3ccccc3Cl)on2)cc1 | 12.9
O=C(N[C@@H](c1ccccc1)[C@@H]1C[C@H]1C(=O)O)OCc1ccccc1 | 13.8

Structure (SMILES) | hERG current change (%, negative = inhibition) at 1uM [%]
O=S(=O)(Nc1ccccn1)c1ccc(-n2cccn2)cc1 | 18.3
O=C(c1cc2sccc2n1Cc1ccccc1)N1CCCc2ccccc21 | 0.679
Cc1cc(=O)[nH]c(SCc2nc3ccccc3c(=O)n2-c2ccccc2C)n1 | 21.4
CSCCC(NC(=O)c1ccccc1)C(=O)N1CCN(C(c2ccccc2)c2ccccc2)CC1 (centres unmarked) | 13.2
COCCCN(CC(=O)Nc1ccc(N2CCOCC2)cc1)S(=O)(=O)c1ccccc1 | 6.63
COC(=O)c1cnc(Nc2cc(C)ccc2OC)c2ccccc12 | 13.6
C=CCn1c(C)c(C(C)=O)cc(NC(=O)c2ccccc2)c1=O | 1.91
N=C(N=C(N)N)N1CCc2ccccc21 | 10.8
O=C(O)c1nccnc1C(=O)Nc1ccc(S(=O)(=O)N2CCOCC2)cc1 | 7.7
CCn1c(CSCc2ccc(Cl)cc2)nnc1SCC(=O)Nc1cccc(C(=O)O)c1 | 9.34
CC(=O)NC1(C(F)(F)F)C(=O)Nc2c1c(=O)[nH]c(=O)n2-c1ccccc1 (centres unmarked) | 18.6
CCOC(=O)[C@H]1[C@H]2COc3ccc(OC)cc3[C@H]2N2C(=O)CNC(=O)[C@@]12C | 11.7
CCc1nnc(N/N=C/c2cccs2)n1N.Cl | 7.4
CC1=NN(C(N)=S)C(=O)C1N=Nc1cccc(Cl)c1 (centres unmarked) | 9.02
Cc1cccc(C(=O)N2CCc3cc(-c4nc(NC(=O)Cn5nnc6ccccc6c5=O)sc4C)ccc32)c1 | 18.8
O=C(Nc1ccc(C(=O)NCc2ccc(F)cc2)cc1)C1=CSCCO1 | -0.658
N#Cc1cc(Cl)c(N2CCOCC2)cc1C#N | 7.95
CCC(C)(C)n1nnnc1C(C(C)C)N1CCN(C)CC1.Cl (centres unmarked) | 15.1
CCC(=O)c1ccc(OCC(=O)NCCc2ccccn2)cc1 | 4.02
Cn1c(C(=O)N[C@@H](C(=O)O)c2ccccc2)cc2cc(F)ccc21 | 17.8
Cc1cc(NC(=O)CSc2nnc3ccccn23)no1 | 3.24
O=C(NC(=S)NC(CO)c1ccccc1)c1ccc(F)cc1 (centres unmarked) | 9.75

Structure (SMILES) | hERG current change (%, negative = inhibition) at 1uM [%]
Cc1ccc(S(=O)(=O)N2CCCC2C(=O)OCc2ccccc2)cc1 (centres unmarked) | 9.93
COc1ccc(CNC(=O)Nc2ccc(OC)cc2)cc1 | 10.6
O=C(Nc1ccc(Cl)cc1Cl)C1=Cc2ccccc2OC1 | 3.71
Cc1[nH]c2ccc(C(=O)N3CCN(c4ccccn4)CC3)cc2c1C | 9.07
Cc1ccc(NC(=S)N(CCN2CCCCC2)Cc2ccco2)cc1Cl | 1.2
O=C1CC(c2cccc([N+](=O)[O-])c2)c2c(ccc3ccccc23)N1 (centres unmarked) | 10.9
Cc1ccc(N2CCN(C(=O)C3CCCN(c4ncnc5c4nc4n5CCCCC4)C3)CC2)c(C)c1 (centres unmarked) | 9.53
Cc1ccc(OCCNS(=O)(=O)c2ccc(N3CCCC3=O)cc2)cc1C | 3
COc1cc(C(=O)NCCCc2nc3ccccc3n2Cc2cc(C)ccc2C)cc(OC)c1OC | 0.547
CCCCn1c(=NC(=O)c2ccco2)c(C(=O)OCC)cc2c(=O)n3ccccc3nc21 | -44.1
C=CCSC1=NC(=O)/C(=C/c2cccs2)S1 | 7.27
O=C(CNC(=O)c1cccs1)N/N=C/c1ccccc1[N+](=O)[O-] | 10.2
O=C(NCCc1nc(-c2ccccc2)cs1)c1ccc(Br)cc1 | 1.38
CC(C)(C)OC(=O)NC(Cc1ccccc1)C(=O)N1CCCC1C(=O)O (stereo not drawn) (Boc-Phe-Pro-OH; configuration not given here) | 12.6
CCN1C(=O)C(=Cc2cc(C)n(C3CC3)c2C)C(=O)N(CC)C1=S | 10.9
COc1ccc(CNC(=O)COc2ccccc2C(=O)c2cnn(-c3ccccc3)c2)cc1OC | -1.17
COc1ccc(CCNC(=O)[C@@H](NC(N)=O)C(C)C)cc1 | 11.4
Cc1cc(C)cc(NCc2ccncc2)c1 | 0.827
O=C1COc2ccc(C(=O)COC(=O)Cn3cnc4ccccc43)cc2N1 | 2.28
Cn1c(=O)oc2cc(S(=O)(=O)NCCC(=O)NCc3ccc(F)cc3)ccc21 | 10.6
